# Assay results: the supplement of paper PMC8728848
# This is one part of the list.
# B1: CAA (Caragana arborescens) (protein)
# chain: VAVEFDTFDNPDWDPRTKHIGIDVNSIRSNKTTQWGFWNRQVADVDISYEASSKTLNVSLYYPGESYIVTDVVDLKDILPEWVRIGF
# Assays:
# Assay in all cases: glycan array binding signal (z-score within array); higher = stronger binding
# Details in all cases: glycan notation: IUPAC condensed, linker removed
# [1] = molecular target: Gal(b1-4)GlcNAc(b1-3)Gal(b1-4)GlcNAc(b1-2)Man(a1-3)[Gal(b1-4)GlcNAc(b1-3)Gal(b1-4)GlcNAc(b1-2)Man(a1-6)]Man(b1-4)GlcNAc(b1-4)[Fuc(a1-6)]GlcNAc
# In short: (§1)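 The binding signal is a Z-score computed within each array and averaged over linkers. Arrays of the same protein sequence at different concentrations or buffers were also averaged together. Data originate from 3228 arrays in the Consortium for Functional Glycomics database, kept only where the protein sequence was available.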
# [2] = molecular target: Gal(b1-4)GlcNAc(b1-3)Gal(b1-4)GlcNAc(b1-2)[Gal(b1-4)GlcNAc(b1-3)Gal(b1-4)GlcNAc(b1-6)]Man(a1-6)[Gal(b1-4)GlcNAc(b1-3)Gal(b1-4)GlcNAc(b1-2)Man(a1-3)]Man(b1-4)GlcNAc(b1-4)GlcNAc
# In short: as §1
# [3] = molecular target: Gal(b1-4)GlcNAc(b1-3)Gal(b1-4)GlcNAc(b1-2)[Gal(b1-4)GlcNAc(b1-3)Gal(b1-4)GlcNAc(b1-6)]Man(a1-6)[Gal(b1-4)GlcNAc(b1-3)Gal(b1-4)GlcNAc(b1-2)Man(a1-3)]Man(b1-4)GlcNAc(b1-4)[Fuc(a1-6)]GlcNAc
# In short: as §1
# [4] = molecular target: Gal(b1-4)GlcNAc(b1-3)Gal(b1-4)GlcNAc(b1-3)Gal(b1-4)GlcNAc
# In short: as §1
# [5] = molecular target: Gal(b1-4)GlcNAc(b1-3)Gal(b1-4)GlcNAc(b1-3)Gal(b1-4)GlcNAc(b1-2)Man(a1-3)[Gal(b1-4)GlcNAc(b1-3)Gal(b1-4)GlcNAc(b1-3)Gal(b1-4)GlcNAc(b1-2)Man(a1-6)]Man(b1-4)GlcNAc(b1-4)GlcNAc
# In short: as §1
# [6] = molecular target: Gal(b1-4)GlcNAc(b1-3)Gal(b1-4)GlcNAc(b1-3)Gal(b1-4)GlcNAc(b1-2)Man(a1-3)[Gal(b1-4)GlcNAc(b1-3)Gal(b1-4)GlcNAc(b1-3)Gal(b1-4)GlcNAc(b1-2)Man(a1-6)]Man(b1-4)GlcNAc(b1-4)[Fuc(a1-6)]GlcNAc
# In short: as §1
# [7] = molecular target: Gal(b1-4)GlcNAc(b1-3)Gal(b1-4)GlcNAc(b1-3)Gal(b1-4)GlcNAc(b1-2)[Gal(b1-4)GlcNAc(b1-3)Gal(b1-4)GlcNAc(b1-3)Gal(b1-4)GlcNAc(b1-6)]Man(a1-6)[Gal(b1-4)GlcNAc(b1-3)Gal(b1-4)GlcNAc(b1-3)Gal(b1-4)GlcNAc(b1-2)Man(a1-3)]Man(b1-4)GlcNAc(b1-4)[Fuc(a1-6)]GlcNAc
# In short: as §1
# [8] = molecular target: Gal(b1-4)GlcNAc(b1-3)Gal(b1-4)GlcNAc(b1-3)Gal(b1-4)GlcNAc(b1-3)Gal(b1-4)GlcNAc(b1-2)Man(a1-3)[Gal(b1-4)GlcNAc(b1-3)Gal(b1-4)GlcNAc(b1-3)Gal(b1-4)GlcNAc(b1-3)Gal(b1-4)GlcNAc(b1-2)Man(a1-6)]Man(b1-4)GlcNAc(b1-4)GlcNAc
# In short: as §1
# [9] = molecular target: Gal(b1-4)GlcNAc(b1-3)Gal(b1-4)GlcNAc(b1-3)Gal(b1-4)GlcNAc(b1-3)Gal(b1-4)GlcNAc(b1-2)Man(a1-3)[Gal(b1-4)GlcNAc(b1-3)Gal(b1-4)GlcNAc(b1-3)Gal(b1-4)GlcNAc(b1-3)Gal(b1-4)GlcNAc(b1-2)Man(a1-6)]Man(b1-4)GlcNAc(b1-4)[Fuc(a1-6)]GlcNAc
# In short: as §1
# [10] = molecular target: Gal(b1-4)GlcNAc(b1-3)Gal(b1-4)GlcNAc(b1-3)Gal(b1-4)GlcNAc(b1-3)Gal(b1-4)GlcNAc(b1-2)[Gal(b1-4)GlcNAc(b1-3)Gal(b1-4)GlcNAc(b1-3)Gal(b1-4)GlcNAc(b1-3)Gal(b1-4)GlcNAc(b1-6)]Man(a1-6)[Gal(b1-4)GlcNAc(b1-3)Gal(b1-4)GlcNAc(b1-3)Gal(b1-4)GlcNAc(b1-3)Gal(b1-4)GlcNAc(b1-2)Man(a1-3)]Man(b1-4)GlcNAc(b1-4)[Fuc(a1-6)]GlcNAc
# In short: as §1
# [11] = molecular target: Gal(b1-4)GlcNAc(b1-3)Gal(b1-4)GlcNAc(b1-3)Gal(b1-4)GlcNAc(b1-3)Gal(b1-4)GlcNAc(b1-3)Gal(b1-4)GlcNAc(b1-2)Man(a1-3)[Gal(b1-4)GlcNAc(b1-3)Gal(b1-4)GlcNAc(b1-3)Gal(b1-4)GlcNAc(b1-3)Gal(b1-4)GlcNAc(b1-3)Gal(b1-4)GlcNAc(b1-2)Man(a1-6)]Man(b1-4)GlcNAc(b1-4)GlcNAc
# In short: as §1
# [12] = molecular target: Gal(b1-4)GlcNAc(b1-3)Gal(b1-4)GlcNAc(b1-3)Gal(b1-4)GlcNAc(b1-3)Gal(b1-4)GlcNAc(b1-3)Gal(b1-4)GlcNAc(b1-2)Man(a1-3)[Gal(b1-4)GlcNAc(b1-3)Gal(b1-4)GlcNAc(b1-3)Gal(b1-4)GlcNAc(b1-3)Gal(b1-4)GlcNAc(b1-3)Gal(b1-4)GlcNAc(b1-2)Man(a1-6)]Man(b1-4)GlcNAc(b1-4)[Fuc(a1-6)]GlcNAc
# In short: as §1
# [13] = molecular target: Gal(b1-4)GlcNAc(b1-3)Gal(b1-4)GlcNAc(b1-3)Gal(b1-4)GlcNAc(b1-3)Gal(b1-4)GlcNAc(b1-3)Gal(b1-4)GlcNAc(b1-2)[Gal(b1-4)GlcNAc(b1-3)Gal(b1-4)GlcNAc(b1-3)Gal(b1-4)GlcNAc(b1-3)Gal(b1-4)GlcNAc(b1-3)Gal(b1-4)GlcNAc(b1-6)]Man(a1-6)[Gal(b1-4)GlcNAc(b1-3)Gal(b1-4)GlcNAc(b1-3)Gal(b1-4)GlcNAc(b1-3)Gal(b1-4)GlcNAc(b1-3)Gal(b1-4)GlcNAc(b1-2)Man(a1-3)]Man(b1-4)GlcNAc(b1-4)[Fuc(a1-6)]GlcNAc
# In short: as §1
# [14] = molecular target: Gal(b1-4)GlcNAc(b1-3)Gal(b1-4)GlcNAc(b1-3)Gal(b1-4)GlcNAc(b1-3)Gal(b1-4)GlcNAc(b1-3)Gal(b1-4)GlcNAc(b1-3)Gal(b1-4)GlcNAc(b1-2)Man(a1-3)[Gal(b1-4)GlcNAc(b1-3)Gal(b1-4)GlcNAc(b1-3)Gal(b1-4)GlcNAc(b1-3)Gal(b1-4)GlcNAc(b1-3)Gal(b1-4)GlcNAc(b1-3)Gal(b1-4)GlcNAc(b1-2)Man(a1-6)]Man(b1-4)GlcNAc(b1-4)GlcNAc
# In short: as §1
# [15] = molecular target: Gal(b1-4)GlcNAc(b1-3)Gal(b1-4)GlcNAc(b1-3)GalNAc
# In short: as §1
# [16] = molecular target: Gal(b1-4)GlcNAc(b1-3)Gal(b1-4)GlcNAc(b1-3)[Gal(b1-4)GlcNAc(b1-3)Gal(b1-4)GlcNAc(b1-6)]GalNAc
# In short: as §1
# [17] = molecular target: Gal(b1-4)GlcNAc(b1-3)Gal(b1-4)GlcNAc(b1-6)[Gal(b1-3)]GalNAc
# In short: as §1
# [18] = molecular target: Gal(b1-4)GlcNAc(b1-3)Gal(b1-4)[Fuc(a1-3)]GlcNAc(b1-3)Gal(b1-4)[Fuc(a1-3)]GlcNAc
# In short: as §1
# [19] = molecular target: Gal(b1-4)GlcNAc(b1-3)GalNAc
# In short: as §1
# [20] = molecular target: Gal(b1-4)GlcNAc(b1-3)[Fuc(a1-3)GlcNAc(b1-6)]Gal(b1-4)Glc
# In short: as §1
# [21] = molecular target: Gal(b1-4)GlcNAc(b1-3)[Gal(b1-4)GlcNAc(b1-6)]Gal(b1-4)GlcNAc
# In short: as §1
# [22] = molecular target: Gal(b1-4)GlcNAc(b1-3)[GlcNAc(b1-6)]Gal(b1-4)GlcNAc
# In short: as §1
# [23] = molecular target: Gal(b1-4)GlcNAc(b1-6)Gal(b1-4)GlcNAc
# In short: as §1
# [24] = molecular target: Gal(b1-4)GlcNAc(b1-6)GalNAc
# In short: as §1
# [25] = molecular target: Gal(b1-4)GlcNAc(b1-6)[Gal(b1-3)]GalNAc
# In short: as §1
# [26] = molecular target: Gal(b1-4)GlcNAc(b1-6)[Gal(b1-4)GlcNAc(b1-3)]GalNAc
# In short: as §1
# Gal(b1-4)GlcNAc6P = molecular target: Gal(b1-4)GlcNAc6P
# In short: as §1
# Gal(b1-6)Gal = molecular target: Gal(b1-6)Gal
# In short: as §1
# Gal3S(b1-3)GalNAc = molecular target: Gal3S(b1-3)GalNAc
# In short: as §1
# Gal3S(b1-3)GlcNAc = molecular target: Gal3S(b1-3)GlcNAc
# In short: as §1
# [27] = molecular target: Gal3S(b1-3)[Fuc(a1-4)]GlcNAc
# In short: as §1
# Gal3S(b1-4)Glc = molecular target: Gal3S(b1-4)Glc
# In short: as §1
# Gal3S(b1-4)Glc6S = molecular target: Gal3S(b1-4)Glc6S
# In short: as §1
# Gal3S(b1-4)GlcNAc = molecular target: Gal3S(b1-4)GlcNAc
# In short: as §1
# [28] = molecular target: Gal3S(b1-4)[Fuc(a1-3)]Glc6S
# In short: as §1
# [29] = molecular target: Gal3S(b1-4)[Fuc(a1-3)]GlcNAc
# In short: as §1
# [30] = molecular target: Gal3S(b1-4)[Fuc(a1-3)]GlcNAc6S
# In short: as §1
# Gal3S4S(b1-4)GlcNAc = molecular target: Gal3S4S(b1-4)GlcNAc
# In short: as §1
# Gal3S6S(b1-4)GlcNAc = molecular target: Gal3S6S(b1-4)GlcNAc
# In short: as §1
# Gal3S6S(b1-4)GlcNAc6S = molecular target: Gal3S6S(b1-4)GlcNAc6S
# In short: as §1
# Gal4S(b1-4)GlcNAc = molecular target: Gal4S(b1-4)GlcNAc
# In short: as §1
# Gal4S6S(b1-4)GlcNAc = molecular target: Gal4S6S(b1-4)GlcNAc
# In short: as §1
# Gal6P(b1-4)GlcNAc = molecular target: Gal6P(b1-4)GlcNAc
# In short: as §1
# Gal6S(b1-3)GlcNAc = molecular target: Gal6S(b1-3)GlcNAc
# In short: as §1
# Gal6S(b1-3)GlcNAc6S = molecular target: Gal6S(b1-3)GlcNAc6S
# In short: as §1
binder,measurement,setting,value
B1,glycan array binding signal (z-score),[1],-0.199
same,glycan array binding signal (z-score),[2],-0.243
same,glycan array binding signal (z-score),[3],-0.242
same,glycan array binding signal (z-score),[4],-0.25
same,glycan array binding signal (z-score),[5],-0.165
same,glycan array binding signal (z-score),[6],-0.233
same,glycan array binding signal (z-score),[7],-0.245
same,glycan array binding signal (z-score),[8],-0.244
same,glycan array binding signal (z-score),[9],-0.224
same,glycan array binding signal (z-score),[10],-0.239
same,glycan array binding signal (z-score),[11],-0.237
same,glycan array binding signal (z-score),[12],-0.246
same,glycan array binding signal (z-score),[13],-0.25
same,glycan array binding signal (z-score),[14],-0.25
same,glycan array binding signal (z-score),[15],-0.201
same,glycan array binding signal (z-score),[16],-0.179
same,glycan array binding signal (z-score),[17],-0.194
same,glycan array binding signal (z-score),[18],-0.242
same,glycan array binding signal (z-score),[19],-0.246
same,glycan array binding signal (z-score),[20],-0.232
same,glycan array binding signal (z-score),[21],-0.233
same,glycan array binding signal (z-score),[22],-0.235
same,glycan array binding signal (z-score),[23],-0.235
same,glycan array binding signal (z-score),[24],-0.241
same,glycan array binding signal (z-score),[25],-0.232
same,glycan array binding signal (z-score),[26],-0.243
same,glycan array binding signal (z-score),Gal(b1-4)GlcNAc6P,-0.249
same,glycan array binding signal (z-score),Gal(b1-6)Gal,-0.242
same,glycan array binding signal (z-score),Gal3S(b1-3)GalNAc,-0.239
same,glycan array binding signal (z-score),Gal3S(b1-3)GlcNAc,-0.238
same,glycan array binding signal (z-score),[27],-0.244
same,glycan array binding signal (z-score),Gal3S(b1-4)Glc,-0.238
same,glycan array binding signal (z-score),Gal3S(b1-4)Glc6S,-0.24
same,glycan array binding signal (z-score),Gal3S(b1-4)GlcNAc,-0.226
same,glycan array binding signal (z-score),[28],-0.23
same,glycan array binding signal (z-score),[29],-0.228
same,glycan array binding signal (z-score),[30],-0.241
same,glycan array binding signal (z-score),Gal3S4S(b1-4)GlcNAc,-0.25
same,glycan array binding signal (z-score),Gal3S6S(b1-4)GlcNAc,-0.235
same,glycan array binding signal (z-score),Gal3S6S(b1-4)GlcNAc6S,-0.248
same,glycan array binding signal (z-score),Gal4S(b1-4)GlcNAc,-0.25
same,glycan array binding signal (z-score),Gal4S6S(b1-4)GlcNAc,-0.251
same,glycan array binding signal (z-score),Gal6P(b1-4)GlcNAc,-0.249
same,glycan array binding signal (z-score),Gal6S(b1-3)GlcNAc,-0.255
same,glycan array binding signal (z-score),Gal6S(b1-3)GlcNAc6S,-0.252
